Screen size: about 310,000 compounds; about 14,000 (4.5%) showed an effect of 50% or more. The effect is printed as a negative number. Some of the results follow.
target: human ether-à-go-go-related gene (hERG) potassium channel (human, UniProt Q12809); test: primary screen, population patch clamp on CHO cells stably expressing hERG
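Note: peak tail current of the secondary pulse compared with the same well before compound.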

human ether-à-go-go-related gene (hERG) potassium channel, sequence (Q12809 whole entry, looked up): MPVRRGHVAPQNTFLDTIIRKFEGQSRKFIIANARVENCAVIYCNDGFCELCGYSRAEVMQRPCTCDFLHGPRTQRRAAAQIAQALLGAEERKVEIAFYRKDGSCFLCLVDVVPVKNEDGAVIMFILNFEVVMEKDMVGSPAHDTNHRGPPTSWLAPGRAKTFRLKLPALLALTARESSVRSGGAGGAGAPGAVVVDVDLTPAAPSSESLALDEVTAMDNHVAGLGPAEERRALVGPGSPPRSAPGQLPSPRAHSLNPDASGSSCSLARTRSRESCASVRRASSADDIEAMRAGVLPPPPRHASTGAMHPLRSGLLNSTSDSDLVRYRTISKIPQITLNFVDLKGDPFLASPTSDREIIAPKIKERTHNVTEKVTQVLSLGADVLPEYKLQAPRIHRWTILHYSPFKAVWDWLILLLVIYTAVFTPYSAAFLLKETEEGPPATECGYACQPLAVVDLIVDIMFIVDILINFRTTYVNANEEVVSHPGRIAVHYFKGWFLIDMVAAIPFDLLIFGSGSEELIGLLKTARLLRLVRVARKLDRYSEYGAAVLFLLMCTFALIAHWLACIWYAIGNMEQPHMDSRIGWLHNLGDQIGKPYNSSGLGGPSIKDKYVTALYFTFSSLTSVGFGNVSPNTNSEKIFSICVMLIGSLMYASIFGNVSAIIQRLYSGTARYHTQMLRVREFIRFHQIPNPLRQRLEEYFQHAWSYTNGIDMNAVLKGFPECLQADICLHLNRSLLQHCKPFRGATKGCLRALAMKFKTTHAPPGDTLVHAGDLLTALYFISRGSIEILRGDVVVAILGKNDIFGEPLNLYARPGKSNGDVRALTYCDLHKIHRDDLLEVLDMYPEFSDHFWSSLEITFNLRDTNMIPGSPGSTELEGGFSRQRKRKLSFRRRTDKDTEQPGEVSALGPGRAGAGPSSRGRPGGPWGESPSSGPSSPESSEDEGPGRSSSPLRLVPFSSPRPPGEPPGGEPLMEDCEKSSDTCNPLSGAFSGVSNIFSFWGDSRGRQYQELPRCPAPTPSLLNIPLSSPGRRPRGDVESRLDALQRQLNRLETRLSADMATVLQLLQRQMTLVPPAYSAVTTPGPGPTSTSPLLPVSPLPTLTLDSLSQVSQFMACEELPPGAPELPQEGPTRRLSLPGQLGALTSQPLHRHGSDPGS

Structure (SMILES) | hERG current change (%, negative = inhibition) at 10uM
O=C(Cn1c(C(=O)NCCCN2CCOCC2)cc2sccc21)c1ccccc1 | -16.5%
O=C(Cn1c(-c2cncs2)nc2ccccc21)NC1CCCC1 | -13.2%
COCCn1c(C)c(C(=O)O)sc1=S | -4.77%
CNC(=S)NC1CC2CCCC(C1)N2Cc1ccccc1OC (stereo not drawn) | -10.1%
COc1cc(C(C(=O)NC(C)(C)C)N(Cc2ccc3c(c2)OCO3)C(=O)c2cnccn2)cc(OC)c1OC (stereo not drawn) | -1.73%
CS(=O)(=O)N(CC(O)Cn1c2ccccc2c2ccccc21)c1ccccc1 (stereo not drawn) | 6.78%
Cc1sc(NC(=O)CCCC(=O)O)c(C#N)c1C | 5.89%
CCC(=Nc1ccc(OC)cc1OC)c1c(O)[nH]c(=O)[nH]c1=O | 0.405%
COc1ccccc1OCCC(=O)Nc1cccc(S(=O)(=O)N2CCCCC2)c1 | -19.2%
O=C1N(c2ccccc2)C2CS(=O)(=O)CC2N1c1ccc(Br)cc1 (stereo not drawn) | -29.3%
CC1CCCN(C(=O)COC(=O)Cc2c(F)cccc2Cl)C1 (stereo not drawn) | 4.8%
CON(C)S(=O)(=O)c1ccc2c(c1)NC(=O)C1CCCN21 (stereo not drawn) | -1.88%
Cc1ccc(C(C(=O)NC2CCCC2)N(Cc2ccco2)C(=O)CCC(=O)Nc2cc(C)on2)cc1 (stereo not drawn) | -29.5%
CC12CC(O)C3c4ccc(O)cc4CCC3C1CCC2=O (stereo not drawn) | 13.7%
O=C(Nc1ccccc1)c1ccc(NCCN2C(=O)CCC2=O)c([N+](=O)[O-])c1 | 10.9%
CNC(=O)Oc1ccc2c(c1)[C@]1(C)CCN(C)C1N2C.O=S(=O)(O)O (stereo partly drawn) | 0.0699%
Cc1ccccc1/C=N\NC(=O)c1csnn1 | 3.01%
Cc1ccc(NC(=O)CSc2nnc([C@@H](N)Cc3c[nH]c4ccccc34)o2)c(C)c1.Cl | -13.2%
CC(=O)C1=C(c2ccccc2)NC(=O)NC1c1ccc2c(c1)OCO2.CC(=O)O (stereo not drawn) | 0.994%
CCn1c(C(=O)O)c(CC(=O)Nc2ccc(Br)cc2C)c2ccccc21 | 12.7%
CCCNC(=O)COc1coc(CN2CCN(c3ccc(F)cc3)CC2)cc1=O | 2.45%
CCCCN(CC)c1nc(N)c2c(N)nc(OCC)cc2c1C#N | 20.2%
O=C(C1CC1)N1CCc2cc(Br)cc(S(=O)(=O)NCC3COc4ccccc4O3)c21 (stereo not drawn) | -17%

Structure (SMILES) | hERG current change (%, negative = inhibition) at 10uM
COC(=O)CSc1nc2ccc(N)cc2s1 | 15.2%
Cc1ccccc1OCCC(=O)Nc1cccc(S(=O)(=O)Nc2ccccc2Cl)c1 | -5.41%
Cn1nc(C(F)(F)F)c(CO)c1Sc1ccc(F)cc1 | 15.6%
O=C1CC(c2ccccc2)CC(O)=C1C=NCC1CCCO1 (stereo not drawn) | 2.77%
CC(=O)N1CCN(CCN=CC2=C(O)CC(c3ccc(Cl)cc3)CC2=O)CC1 (stereo not drawn) | -15.7%
CCO.Cc1nn(-c2ccccc2)c(Cl)c1C1C(C#N)=C(N)Oc2c1c(C)nn2-c1ccccc1 (stereo not drawn) | -5.77%
Cn1c(=O)[nH]c(=O)c2c1nc(Br)n2CCC(=O)c1ccccc1 | -12.3%
CCCOc1ccc(-c2c(C(=O)N/N=C/c3ccco3)nnn2-c2nonc2N)cc1 | 19.5%
O=c1ccc2cc(S(=O)(=O)N3CCN(c4cc(Cl)ccc4Cl)CC3)ccc2o1 | -20.7%
CCn1c(-c2cc(Cl)ccc2OC)n[nH]c1=S | 2.07%
CCCCOC(=O)C1=C(N)OC2=C(C(=O)CCC2)[C@]12C(=O)Nc1ccccc12 | 5.12%
Cc1ccc(Cn2ccc(NC(=O)c3noc4c3CCCC4)n2)cc1 | -13.3%
Cc1ccc(CN2CCN(/N=C/c3cccnc3)CC2)cc1 | -27.9%
N#Cc1nc(-c2ccccc2F)oc1NCc1cccc2c1OCO2 | -24.9%
Cc1ccc(-n2nc3c(c2NC(=O)c2cccs2)CS(=O)(=O)C3)c(C)c1 | -4.26%
CC1CCCCN1C(=O)COC(=O)c1cc(-c2cccs2)nn1-c1ccccc1 (stereo not drawn) | 0.387%
COCCCNC(=O)CN(c1cc(Cl)ccc1OC)S(C)(=O)=O | 17.4%
CC(CN1CCC(O)CC1)c1ccccc1 (stereo not drawn) | 10.6%
O=S(=O)(Nc1ccccc1O)c1ccc(Cl)nc1 | 19.1%
CC(C)c1ccc(-c2c(C#N)c(N)nc3c2CCCCC3)cc1 | 10.8%
C=CCNc1ncnc2ccccc12 | 22.5%
Cc1ccc2c(C)cc[n+](CCCS(=O)(=O)[O-])c2c1 | -16.8%

— article PMC4336329 (PLoS ONE, 2015)
